Data as given in the supplement of paper PMC4604168 (melanoma cell lines).
The other results are listed elsewhere or left out. Single values are uncertain, as repeats are few or missing.

Key:
Experiment in all cases: cell count relative to DMSO control; melanoma cells; higher = more viable cells
Conditions in all cases: library dose: standard library concentration; 72 h
SkMel2 = tested on: SkMel2
SkMel30 = tested on: SkMel30
SkMel5 = tested on: SkMel5
UACC257 = tested on: UACC257
UACC62 = tested on: UACC62
WM115 = tested on: WM115
WM1716 = tested on: WM1716
WM3526 = tested on: WM3526
WM1745 = tested on: WM1745
SkMel28 = tested on: SkMel28
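Also: cells treated in 1,536-well plates, then fixed and DAPI-stained, with nuclei counted from automated high-throughput microscope images.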

Row | Compound | cell count (SkMel2) | cell count (SkMel30) | cell count (SkMel5) | cell count (UACC257) | cell count (UACC62) | cell count (WM115) | cell count (WM1716) | cell count (WM3526) | cell count (WM1745) | cell count (SkMel28)
1 | CCCCCCCCc1ccc(CCC(N)(CO)CO)cc1 [fingolimod] + Cn1cc(/C=C2\C(=O)Nc3cccnc32)c2ccccc21 [GW441756] (first compound 10 µM, partner dose 2 µM) | 0.107% | 9.82% | 49.9% | 61.7% | 12.8% | 12.4% | 57.6% | 49.8% |  | 
2 | CCCCCCCCc1ccc(CCC(N)(CO)CO)cc1 [fingolimod] + NCC(=O)Nc1ccc(-n2nc(C(F)(F)F)cc2-c2ccc3c(ccc4ccccc43)c2)cc1 [OSU03012] (first compound 10 µM, partner dose 5 µM) | 0.18% | 9.31% | 16.6% | 25.5% | 23% | 14.6% | 10.6% | 5.24% | 1.83% | 
3 | CCCCCCCCc1ccc(CCC(N)(CO)CO)cc1 [fingolimod] + CC1(C)NC(=O)N(c2ccc([N+](=O)[O-])c(C(F)(F)F)c2)C1=O [nilutamide] (first compound 10 µM, partner dose 5 µM) | 0.926% | 11.7% | 49.5% | 60.3% | 22.1% | 14.4% | 22.1% | 12.9% | 5.36% | 
4 | CCCCCCCCc1ccc(CCC(N)(CO)CO)cc1 [fingolimod] + COC(=O)c1sccc1S(=O)(=O)Nc1ccc(Nc2ccccc2)cc1OC [GSK0660] (first compound 10 µM, partner dose 5 µM) | 0.216% | 6.21% | 79.8% | 55.4% | 22.4% | 11.5% | 46.7% | 11.4% |  | 
5 | CCCCCCCCc1ccc(CCC(N)(CO)CO)cc1 [fingolimod] + Clc1ccc(Nc2nnc(Cc3ccncc3)c3ccccc23)cc1 [vatalanib] (first compound 10 µM, partner dose 10 µM) | 0.308% | 5.78% | 24.7% | 51.4% | 15.1% | 12.7% | 8.44% | 10.1% | 3.74% | 
6 | CCCCCCCCc1ccc(CCC(N)(CO)CO)cc1 [fingolimod] + Cc1cc(N2CCOCC2)cc2[nH]c(-c3c(NC[C@@H](O)c4cccc(Cl)c4)cc[nH]c3=O)nc12 [BMS536924] (first compound 10 µM, partner dose 1 µM) | 0.0965% | 12.1% | 35.2% | 68.8% | 18.2% | 10.9% | 6.65% | 11.8% | 1.78% | 
7 | CCCCCCCCc1ccc(CCC(N)(CO)CO)cc1 [fingolimod] + COc1ccc(-c2ccc3c(N4CCOCC4)nc(N4C[C@@H](C)O[C@@H](C)C4)nc3n2)cc1CO [KU0063794] (first compound 10 µM, partner dose 0.1 µM) | 0.106% | 11.1% | 46.5% | 39.7% | 15.5% | 7.53% | 10.1% | 16.3% |  | 
8 | CCCCCCCCc1ccc(CCC(N)(CO)CO)cc1 [fingolimod] + O=C(O)C(=O)Nc1sc2c(c1C(=O)O)CCNC2 [TCS401] (first compound 10 µM, partner dose 8.33333 µM) | 0.31% | 12.1% | 56.7% | 73.4% | 22.4% | 18.5% | 26.6% | 60% |  | 
9 | CCCCCCCCc1ccc(CCC(N)(CO)CO)cc1 [fingolimod] + COc1cc(N2CCC(N3CCN(C)CC3)CC2)ccc1Nc1ncc(Cl)c(Nc2ccccc2S(=O)(=O)C(C)C)n1 [NVP-TAE684] (first compound 10 µM, partner dose 0.4 µM) |  | 11.2% | 51.3% | 76.6% | 29% | 8.37% | 47% | 33.6% |  | 2.98%
10 | CCCCCCCCc1ccc(CCC(N)(CO)CO)cc1 [fingolimod] + CCCCCCCCCCCC1=C(O)C(=O)C=C(O)C1=O [Embelin] (first compound 10 µM, partner dose 6 µM) | 0.208% | 18.2% | 60% | 59.9% | 17.5% | 43.5% | 60.7% | 29.6% |  | 
11 | NC(=O)c1ccc(N(C(N)=O)c2c(F)cccc2F)nc1-c1ccc(F)cc1F + CCc1ccc(CCOc2ccc(CC3SC(=O)NC3=O)cc2)nc1 [pioglitazone] (first compound 2 µM, partner dose 10 µM) |  | 116% | 87.2% | 107% | 81.3% | 93.6% | 107% | 103% |  | 74.7%
12 | CCCCCCCCc1ccc(CCC(N)(CO)CO)cc1 [fingolimod] + COc1cc2ncnc(Nc3ccc(Oc4ccccc4)cc3)c2cc1OC [SrcI1] (first compound 10 µM, partner dose 10 µM) | 0.567% | 9.62% | 47.3% | 75.9% | 13.5% | 6.29% | 50.8% | 21.1% |  | 
13 | CN(NC(=O)CC(=O)NN(C)C(=S)c1ccccc1)C(=S)c1ccccc1 + CC(C)CCN1c2nc(Nc3cc(F)c(O)c(F)c3)ncc2N(C)C(=O)C1C [BID1870] (first compound 0.03 µM, partner dose 1 µM) | 52.8% | 75.7% | 52.4% | 82.3% | 77.9% | 15.7% | 81.8% | 75.4% | 42.9% | 
14 | CCCCCCCCc1ccc(CCC(N)(CO)CO)cc1 [fingolimod] + O=C1NC(=O)/C(=C/c2ccc(-c3ccc(F)cc3O)o2)S1 [AS252424] (first compound 10 µM, partner dose 5 µM) | 0.0941% | 8.38% | 58.9% | 67.6% | 12.9% | 6.83% | 31.5% | 31.5% |  | 
15 | Cc1ccc(NC(=O)c2cccc(N(C)C)c2)cc1NC(=O)c1ccc(O)cc1 + Oc1cc(-c2nc(-c3ccccc3)[nH]c2-c2ccncc2)ccc1Cl [L779450] (first compound 10 µM, partner dose 1 µM) |  | 93.1% | 82.5% | 108% | 64.9% | 49.4% | 83.1% | 59.1% | 56.8% | 49.8%
16 | NC(=O)c1ccc(N(C(N)=O)c2c(F)cccc2F)nc1-c1ccc(F)cc1F + COc1cc(N2CCC(N3CCN(C)CC3)CC2)ccc1Nc1ncc(Cl)c(Nc2ccccc2S(=O)(=O)C(C)C)n1 [NVP-TAE684] (first compound 2 µM, partner dose 0.4 µM) | 71.9% | 139% | 62.5% | 84.9% | 79.6% | 74.3% | 97.7% | 82.1% |  | 74.4%

Row | Compound | cell count (SkMel2) | cell count (SkMel30) | cell count (SkMel5) | cell count (UACC257) | cell count (UACC62) | cell count (WM115) | cell count (WM1716) | cell count (WM3526) | cell count (WM1745) | cell count (SkMel28)
17 | CCCCCCCCc1ccc(CCC(N)(CO)CO)cc1 [fingolimod] + O=c1cc(-c2cccc3c2Sc2ccccc2S3)oc(N2CCOCC2)c1 [KU55933] (first compound 10 µM, partner dose 5 µM) |  | 11.6% | 28.5% | 50.9% | 9.96% | 12.9% | 13.2% | 14.6% |  | 2.62%
18 | NC(=O)c1ccc(N(C(N)=O)c2c(F)cccc2F)nc1-c1ccc(F)cc1F + CC(C)CCN1c2nc(Nc3cc(F)c(O)c(F)c3)ncc2N(C)C(=O)C1C [BID1870] (first compound 2 µM, partner dose 1 µM) |  | 104% | 72.8% | 91.1% | 78.7% | 81.8% | 105% | 70.4% |  | 72.8%
19 | CCCCCCCCc1ccc(CCC(N)(CO)CO)cc1 [fingolimod] + Nc1ncn([C@H]2C[C@H](O)[C@@H](CO)O2)c(=O)n1 [decitabine] (first compound 10 µM, partner dose 0.5 µM) | 0.107% | 17.7% | 62.3% | 63.1% | 20.9% | 15% | 38% | 35.3% | 6.5% | 
20 | Cc1ccc(NC(=O)c2cccc(N(C)C)c2)cc1NC(=O)c1ccc(O)cc1 + CC(C)(C)c1cnc(CSc2cnc(NC(=O)C3CCNCC3)s2)o1 [SNS-032] (first compound 10 µM, partner dose 0.05 µM) |  | 97.4% | 64.8% | 90.3% | 73% | 73.1% | 82.2% | 81% | 69.3% | 83.6%
21 | NC(=O)c1ccc(N(C(N)=O)c2c(F)cccc2F)nc1-c1ccc(F)cc1F + O=C(Nc1ccccc1)c1cc([N+](=O)[O-])ccc1Cl [GW9662] (first compound 2 µM, partner dose 10 µM) | 77.3% | 81.4% | 65.5% | 80.1% | 67% | 55.2% | 102% | 63% |  | 51.7%
22 | CN(NC(=O)CC(=O)NN(C)C(=S)c1ccccc1)C(=S)c1ccccc1 + c1cc(-c2cnn3cc(-c4ccc(OCCN5CCCCC5)cc4)cnc23)ccn1 [Dorsomorphin] (first compound 0.03 µM, partner dose 2 µM) |  | 99.2% | 55.3% | 86.6% | 48.9% | 21.5% | 71% | 78.1% | 29.3% | 12.6%
23 | NC(=O)c1ccc(N(C(N)=O)c2c(F)cccc2F)nc1-c1ccc(F)cc1F + O=c1cc(-c2cccc3c2Sc2ccccc2S3)oc(N2CCOCC2)c1 [KU55933] (first compound 2 µM, partner dose 5 µM) | 84.6% | 105% | 67.3% | 86.6% | 77.5% | 96.3% | 103% | 88.8% |  | 70.8%
24 | CCCCCCCCc1ccc(CCC(N)(CO)CO)cc1 [fingolimod] + COc1ccc(COc2ccc(Cc3cnc(N)nc3N)cc2OC)cc1 [GW2580] (first compound 10 µM, partner dose 5 µM) | 6% | 12% | 50.4% | 67.6% | 34.9% | 22.4% | 43% | 31.1% |  | 47%
25 | COc1cc2c(Oc3ccc4[nH]c(C)cc4c3F)ncnc2cc1OCCCN1CCCC1 [cediranib] + c1cc(-c2cnn3cc(-c4ccc(OCCN5CCCCC5)cc4)cnc23)ccn1 [Dorsomorphin] (first compound 2 µM, partner dose 2 µM) |  | 86.8% | 66.4% | 91% | 63.3% | 77% | 82.1% | 71% | 56.3% | 66%
26 | CCCCCCCCc1ccc(CCC(N)(CO)CO)cc1 [fingolimod] + CCc1ccc(CCOc2ccc(CC3SC(=O)NC3=O)cc2)nc1 [pioglitazone] (first compound 10 µM, partner dose 10 µM) | 0.659% | 6.58% | 57.2% | 75.9% | 13.5% | 12.8% | 15.7% | 11.5% |  | 0.602%
27 | CCCCCCCCc1ccc(CCC(N)(CO)CO)cc1 [fingolimod] + c1cc(-c2cnn3cc(-c4ccc(OCCN5CCCCC5)cc4)cnc23)ccn1 [Dorsomorphin] (first compound 10 µM, partner dose 2 µM) | 0.394% | 37.5% | 29.7% | 75.3% | 10.8% | 20.6% | 43.3% | 53.9% |  | 1.2%
28 | NC(=O)c1ccc(N(C(N)=O)c2c(F)cccc2F)nc1-c1ccc(F)cc1F + Oc1nc(-c2ccc(C(F)(F)F)cc2)nc2c1CSCC2 [XAV939] (first compound 2 µM, partner dose 10 µM) | 108% | 109% | 63.2% | 81.2% | 70.2% | 80.7% | 67.2% | 109% |  | 82.9%
29 | CCCCCCCCc1ccc(CCC(N)(CO)CO)cc1 [fingolimod] + CC(C)CCN1c2nc(Nc3cc(F)c(O)c(F)c3)ncc2N(C)C(=O)C1C [BID1870] (first compound 10 µM, partner dose 1 µM) | 61.7% | 52.3% | 55.6% | 81.8% | 52.5% | 57.1% | 55.5% | 51.4% |  | 37%
30 | CCCCCCCCc1ccc(CCC(N)(CO)CO)cc1 [fingolimod] + CN(NC(=O)CC(=O)NN(C)C(=S)c1ccccc1)C(=S)c1ccccc1 [STA4783] (first compound 10 µM, partner dose 0.03 µM) | 0.105% | 5.23% | 27.5% | 39.2% | 16.3% | 14% | 25.1% | 11.7% | 14.4% | 
31 | NC(=O)c1ccc(N(C(N)=O)c2c(F)cccc2F)nc1-c1ccc(F)cc1F + Oc1cc(-c2nc(-c3ccccc3)[nH]c2-c2ccncc2)ccc1Cl [L779450] (first compound 2 µM, partner dose 1 µM) | 36.4% | 81.8% | 70.3% | 82.8% | 39% | 46.1% | 83.9% | 62.2% |  | 40.8%
32 | CCCCCCCCc1ccc(CCC(N)(CO)CO)cc1 [fingolimod] + Cn1c(=O)n(-c2ccc(C(C)(C)C#N)cc2)c2c3cc(-c4cnc5ccccc5c4)ccc3ncc21 [NVP-BEZ235] (first compound 10 µM, partner dose 0.02 µM) | 0.0826% | 12.9% | 60.1% | 69.6% | 11.6% | 11.5% | 37.4% | 26.2% | 4.33% | 
